Measured values: the supplement of paper PMC11417369
This is one part of the list.

Each sequence was assayed on PfAP2-HC AP2 domain (GST-tagged) (assay: gcPBM binding intensity (ln(normalized median fluorescence intensity)); higher = stronger DNA binding).
Method in brief: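 Alexa488 anti-GST antibody, scanned at 488 nm, detected GST-tagged P. falciparum DNA-binding domains that had been expressed in E. coli and incubated for 1 h on an Agilent 4 × 180k array. The array carried primer-extended double-stranded 36-bp intergenic genomic probes and negative controls. Binding intensity is the highest Masliner-normalised natural-log median intensity across replicate spots of either orientation of each probe.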

| Sequence | gcPBM binding intensity (ln) |
| --- | --- |
| TGATCAAATAAGTTTGCATGTCAACAATGCATATAT [TGCATGCA_site1025] | 9.5 |
| GAATTCCTTTGTGTATGTACATAATGATATTATTTT [XGTACX_site7369] | 9.84 |
| CCCCTTGTGGATTCTACACACAAAAAGTCGTCAAAA [CACACA_site821] | 9.74 |
| TAATTTTTTAAACACACACACATATATATATATATA [CACACA_site4230] | 10 |
| TTATTCTTTTAATATACACACTTTGTCTTTTCGCGC [CACACA_site5525] | 9.9 |
| ATATATATAAAAGAAACAACATTTATTCAAAAGGTA [CACACA_negctrl_site749] | 9.72 |
| TTTTAAATTTAGTGTAGTACACTTTTTTCAAATATA [XGTACX_site4659] | 9.58 |
| TACTTTTATAAAAATTTTATCAAATTCTATATATGT [TGCATGCA_negctrl_site308] | 9.64 |
| ATATAATTCAAATACAGTACATATACAATATATACA [XGTACX_site1191] | 9.63 |
| AATAACAAAATAGGCACACGCACATATATATATATA [CACACA_site1497] | 9.98 |
| TATTTTTCTTTTTAAAAATATATCACATGAACATTA [XGTACX_negctrl_site183] | 9.39 |
| TACATATTTATATACACACACACACGGATATTTATA [CACACA_site7239] | 11 |
| GCACCCTGTATGAATGCACACATTCATAGAATTGCT [CACACA_site5475] | 9.81 |
| ATTCAAAAGATGTATACACACATGTGGATAATATAA [CACACA_site2443] | 9.92 |
| TAAACAAAAAGGAAGAGTACTTGTAAAATTTGTAAA [XGTACX_site3003] | 9.7 |
| ATATACATATCATGTAGTACAATTTTTTTACTTTTT [XGTACX_site7988] | 9.58 |
| CACTTTTTTTAAATGTGTACGTATATGAAAATATCA [XGTACX_site4854] | 9.43 |
| TAAAAAAATAAAATTACACACATATATAGATATATA [CACACA_site7273] | 9.74 |
| TTATATTTCTTGAAGGGTACATACCATTATTTTTAA [XGTACX_site1159] | 9.57 |

| Sequence | gcPBM binding intensity (ln) |
| --- | --- |
| ATATATTTATATATTACACACAATATTGGAGACATA [CACACA_site931] | 9.76 |
| AGAAAACTCGCTTTTCTAAATCTCAAAAAAAAAAAA [XGTACX_negctrl_site94] | 9.25 |
| ATACATATATTAGGATGTACGTTTATTTTAGTTATT [XGTACX_site7169] | 9.72 |
| ACAAAAAAAAATATGTTAACTATATATATATATATA [CACACA_negctrl_site346] | 9.65 |
| AATTGGGAACTGTAATGTACATATATTGAAAGTATA [XGTACX_site7081] | 9.65 |
| TATTTATTTGTACATATACACACTTAAATATGTTTA [CACACA_site3902] | 9.87 |
| TAATTAACCTATGCATTCATATAGATACATAAATAT [CACACA_negctrl_site885] | 9.5 |
| GTTTCTATTCACATTTTACACACGTCCATCGCATTT [CACACA_site9142] | 10.2 |
| TTTTGTTGTATGATAATTCTTTTATCAATATGTCTT [TGCATGCA_negctrl_site567] | 9.63 |
| ACCAAATTATCAAATGGTACACATAAAATAATAAAA [XGTACX_site865] | 9.68 |
| TACAAAAAATTATGGAGTACATATATAATATACAAT [XGTACX_site1004] | 9.57 |
| GAACCATTTTTTGGTATACACACGTAATTATAGAAT [CACACA_site1851] | 9.67 |
| AGATCATAATATTATACACACATTATGTATATGTAA [CACACA_site1490] | 9.77 |
| TGAATACATAAATATAGTACATATATATATATATTA [XGTACX_site8756] | 9.65 |
| TATAATATTATTTGAAGTACAAACATAAAAGAATTA [XGTACX_site3161] | 9.62 |
| TATATACATACATATTGTACTTATAAAGATTAATTT [XGTACX_site2203] | 9.62 |
| ATATAAGTATATCTATGTACATACAATATAAATGTA [XGTACX_site2153] | 9.8 |
| TTTTAAAAAAAAAAAAAATAAGATAAAATTAAATAA [GTGCAC_negctrl_site367] | 9.19 |
| ATAAAAAATATCACATAAAATAAAAAAAGAAAGGAT [XGTACX_negctrl_site294] | 9.86 |

| Sequence | gcPBM binding intensity (ln) |
| --- | --- |
| TATATATATACAGTAGTGCATATATTTAAAATATAT [GTGCAC_site9999] | 9.68 |
| TATATATAAAAATATACACACTGTATTATTGTAATA [CACACA_site5959] | 9.7 |
| ATATATAAAAATAAATGTACATATTCATATGATGAT [XGTACX_site3411] | 9.74 |
| GACAATTATATGTAGGTGCATATACAAATTTTTTAA | 9.61 |
| ATAGGATATTATTCCTGTACATATATATATATATAT [XGTACX_site2108] | 9.72 |
| ATCAAAAGAAGACACACACACATACCTATAAATATA [CACACA_site7736] | 10.8 |
| AATAGTTATTCCAGGTGTACATAACATATAATTTAC [XGTACX_site1340] | 9.68 |
| TTATTATTATTACTTACGCACACTTTTTTTTTTATT [CACACA_site411] | 9.96 |
| ATATATATATATATATGTACATACAATTATATTCTC [XGTACX_site1133] | 9.65 |
| AATCTTCTTAATTGTAGTACACAATTTATAAACAAA [XGTACX_site8706] | 9.45 |
| AAAAATCATTTAAGAACACACAAATATTTCCATTAA [CACACA_site1488] | 9.7 |
| TACATAAATTTTAATACATGCAAATAAAATATATAA [TGCATGCA_site131] | 9.58 |
| ATAACGAACACTATTACACACATACATACATATGTA [CACACA_site5092] | 9.94 |
| AAAAAAAAAAAAAACACACACACATAGACCTCCAAT [CACACA_site3563] | 11.3 |
| TTTTTTGTTACAACAGTGCAAAAAAACCTTAATGTT | 9.44 |
| TACATACATACATACACACACATATAGATTTATATA [CACACA_site6999] | 10.1 |
| TATATAAAAATATACACACACAAATGTATATATATA [CACACA_site220] | 10.1 |
| ATATATATATATATATCACACATTAATAATATATAT [CACACA_site5081] | 9.57 |
